# The antibiotic and cytotoxicity screens of Wong et al. (2023)
# The other results are listed elsewhere or left out.
# Legend:
# HSkMC = human skeletal muscle cells; test: cytotoxicity call (relative viability < 0.9); conditions: 10 µM
# HepG2 = test: cytotoxicity call (relative viability < 0.9); conditions: 10 µM
# S. aureus RN4220 = test: growth inhibition call (relative growth <= 0.2); conditions: 50 µM
Structure (SMILES),cytotoxicity call (HSkMC),cytotoxicity call (HepG2),growth inhibition call (S. aureus RN4220)
N#CCN1CCSCC1,inactive,inactive,inactive
CCNC(=O)C[C@@H]1CC[C@@H](NC(=O)C2CC2)[C@H](CO)O1,inactive,inactive,inactive
Nc1nonc1N1CCCCC1,inactive,inactive,inactive
Cc1ccc(S(=O)(=O)N(C)C[C@@H]2Oc3ccc(NS(=O)(=O)c4ccc(F)cc4)cc3CC(=O)N([C@H](C)CO)C[C@H]2C)cc1,inactive,inactive,inactive
CN(C)CCCNC(=O)[C@@H]1[C@@H](CO)[C@@H]2Cn3c(ccc(-c4cccc(C(=O)N(C)C)c4)c3=O)[C@H]1N2,inactive,inactive,inactive
Cc1ccc(S(=O)(=O)Nc2ccc3c(c2)CC(=O)N([C@@H](C)CO)C[C@@H](C)[C@H](CN(C)S(=O)(=O)c2ccccc2)O3)cc1,inactive,inactive,inactive
C[C@@H]1CN([C@H](C)CO)C(=O)Cc2cc(NC(=O)CCCCCC(=O)Nc3ccccc3N)ccc2O[C@@H]1CN(C)Cc1ccc(Cl)c(Cl)c1,inactive,active,inactive
N[C@@H](C(=O)O)c1ccc(O)cc1,inactive,inactive,inactive
COc1ccc(S(=O)(=O)N(C)C[C@@H]2OCCCC[C@@H](C)Oc3ccc(NC(=O)c4ccccc4)cc3C(=O)N([C@H](C)CO)C[C@@H]2C)cc1,inactive,inactive,inactive
CC(=O)n1cc([C@H]2C=C(C(=O)N3CCOCC3)O[C@@H](OCCCCOC(=O)NCCCCCC(=O)NO)C2)c2ccccc21,inactive,inactive,inactive
C[C@H]1CN([C@@H](C)CO)C(=O)c2cccc(NC(=O)c3cnccn3)c2O[C@H]1CN(C)S(=O)(=O)c1cn(C)cn1,inactive,inactive,inactive
